Structures are written as SMILES. Structures can show the parent of a compound that is named as a salt. ± gives the standard deviation of the averaged measurements. The full ranking holds about 1,300 compounds; the median of “normalised cell viability” is about 1, and the lowest 2% start at about 0.14. This is one part of the list.

This experiment relates to V-C8 (BRCA2-deficient hamster cells). As to the kind of experiment: normalised cell viability (fraction of plate median); higher = more viable cells (less toxic). As to conditions: 5 µM. An outline of the steps: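 Library drugs, held as 10 mM stocks in DMSO, were diluted to 5 μM in 100 μl medium and added to 96-well plates of V-C8 hamster cells, either lacking BRCA2 or with BRCA2 restored, 24 h after seeding. Plates ran for 3 days (screen 1) or 6 days (screen 2), alongside solvent-only wells. Viability came from a resazurin readout, median-plate normalised, as the mean of triplicate wells.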

For the molecule `CC(C)c1cccc(C(C)C)c1O` [Propofol], the normalised cell viability was determined as 1.06 ± 0.024 (treatment time: 3 days) and 1.09 ± 0.018 (treatment time: 6 days).

In the case of `C[C@]12CC[C@H](O)C[C@H]1CC[C@@H]1[C@@H]2CC[C@]2(C)[C@@H](C3=CC(=O)OC3)CC[C@]12O` [Digitoxigenin], the normalised cell viability was 1.06 ± 0.044 (treatment time: 3 days) and 1.1 ± 0.2 (treatment time: 6 days).

Take `Oc1ccc2c3c1O[C@H]1[C@@H](O)CC[C@@]4(O)[C@@H](C2)N(CC2CCC2)CC[C@]314` [Nalbuphine hydrochloride]: the normalised cell viability (treatment time: 3 days) is 1.1 ± 0.1 and the normalised cell viability (treatment time: 6 days) came to 1.06 ± 0.043.

For the molecule `O=C(NCNC(=O)NC1C(=O)NC(=O)N1CO)NC1C(=O)NC(=O)N1CO` (configuration not stated) [Imidurea], the normalised cell viability runs as follows: (treatment time: 3 days) 1.06 ± 0.039; (treatment time: 6 days) 1.03 ± 0.024.

Molecule `CC(=O)O[C@H]1CC[C@@]2(C)C(=CC[C@@H]3[C@@H]2CC[C@]2(C)C(=O)CC[C@@H]32)C1` [Dehydroisoandosterone 3-acetate] displayed a normalised cell viability (treatment time: 3 days) of 1.07 ± 0.021 and a normalised cell viability (treatment time: 6 days) of 0.995 ± 0.034.

Molecule `CN1C[C@H](CNC(=O)OCc2ccccc2)C[C@@H]2c3cccc4c3c(cn4C)C[C@H]21` [Metergoline] registered a normalised cell viability (treatment time: 3 days) of 0.1447 ± 0.00066 and a normalised cell viability (treatment time: 6 days) of 0.133 ± 0.017.

With `C[C@]12C/C(=C/O)C(=O)C[C@@H]1CC[C@@H]1[C@@H]2CC[C@@]2(C)[C@H]1CC[C@]2(C)O` [Oxymetholone], the normalised cell viability is, setting by setting: (treatment time: 3 days) 1.122 ± 0.01; (treatment time: 6 days) 1.05 ± 0.052.

On to `CC(=O)[C@H]1CC[C@H]2[C@@H]3CC[C@H]4C[C@H](O)CC[C@]4(C)[C@H]3C(=O)C[C@]12C` [Alfaxalone], for which the normalised cell viability by setting is: (treatment time: 3 days) 1.06 ± 0.023; (treatment time: 6 days) 0.989 ± 0.053.

Consider `C=C1C[C@@H]2[C@H](CC[C@]3(C)C(=O)CC[C@@H]23)[C@@]2(C)C=CC(=O)C=C12` [Exemestane], for which the normalised cell viability (treatment time: 3 days) is 1.12 ± 0.14 and the normalised cell viability (treatment time: 6 days) came to 0.939 ± 0.045.

Take `C[C@]12COC(=O)C[C@@H]1CC[C@@H]1[C@@H]2CC[C@@]2(C)[C@H]1CC[C@]2(C)O` [Oxandrolone]: the normalised cell viability by setting is: (treatment time: 3 days) 1.12 ± 0.073; (treatment time: 6 days) 1.08 ± 0.072.

Regarding `O=P1(N(CCCl)CCCl)NCCCO1` (configuration not stated) [Cyclophosphamide], the normalised cell viability by setting is: (treatment time: 3 days) 1.03 ± 0.035; (treatment time: 6 days) 1.1 ± 0.046.

For the molecule `CN1C(=O)CCS(=O)(=O)C1c1ccc(Cl)cc1` (configuration not stated) [Chlormezanone], the normalised cell viability runs as follows: (treatment time: 3 days) 1.147 ± 0.0098; (treatment time: 6 days) 1.015 ± 0.0056.

Regarding `C=CCC1(CC(C)C)C(=O)NC(=O)NC1=O` [Butalbital], the normalised cell viability (treatment time: 3 days) was 1.1 ± 0.031 and the normalised cell viability (treatment time: 6 days) was 1.079 ± 0.0048.

For the molecule `O=C(CCCN1CCC(n2c(=O)[nH]c3ccccc32)CC1)c1ccc(F)cc1` [Benperidol], the normalised cell viability came out at 0.93 ± 0.029 (treatment time: 3 days) and 0.969 ± 0.083 (treatment time: 6 days).

For `C[C@@H]1CN([C@H]2CC[C@](C#N)(c3ccc(F)cc3)CC2)CC[C@]1(C(=O)O)c1ccccc1` [Levocabastine hydrochloride], the normalised cell viability by setting is: (treatment time: 3 days) 0.9655 ± 0.0085; (treatment time: 6 days) 0.952 ± 0.046.

On to `COc1ccc(OC)c(C(O)C(C)N)c1` (configuration not stated) [Methoxamine hydrochloride], for which the normalised cell viability (treatment time: 3 days) turned out to be 1.11 ± 0.11 and the normalised cell viability (treatment time: 6 days) is 1.02 ± 0.063.

For the molecule `CCC(=O)O[C@H]1CC[C@H]2[C@@H]3CCC4=CC(=O)CC[C@]4(C)[C@H]3CC[C@]12C` [Testosterone propionate], the normalised cell viability by setting is: (treatment time: 3 days) 0.895 ± 0.057; (treatment time: 6 days) 0.975 ± 0.052.

As to `CCCC(C)(COC(N)=O)COC(=O)NC(C)C` (configuration not stated) [Carisoprodol], the normalised cell viability turned out to be 1.08 ± 0.097 (treatment time: 3 days) and 1.03 ± 0.12 (treatment time: 6 days).

As to `CCC1(C)CC(=O)NC(=O)C1` [Bemegride], the normalised cell viability runs as follows: (treatment time: 3 days) 0.925 ± 0.075; (treatment time: 6 days) 1.06 ± 0.055.

In the case of `C[N+]1(C)CCCC(OC(=O)C(O)(c2ccccc2)c2ccccc2)C1` (configuration not stated) [Mepenzolate bromide], the normalised cell viability by setting is: (treatment time: 3 days) 0.974 ± 0.054; (treatment time: 6 days) 1.08 ± 0.059.

As for `OC(c1ccccc1)(c1ccccc1)C1CCNCC1` [Azacyclonol], the normalised cell viability is, setting by setting: (treatment time: 3 days) 1.1 ± 0.083; (treatment time: 6 days) 1.01 ± 0.029.

For the molecule `NC(=O)OCCCc1ccccc1` [Phenprobamate], the normalised cell viability runs as follows: (treatment time: 3 days) 1.14 ± 0.049; (treatment time: 6 days) 1.08 ± 0.15.

Take `O=c1[nH]c2ccccc2n1C1CCN(CCCC(c2ccc(F)cc2)c2ccc(F)cc2)CC1` [Pimozide]: the normalised cell viability runs as follows: (treatment time: 3 days) 0.262 ± 0.033; (treatment time: 6 days) 0.391 ± 0.032.

As for `C#CCN(C)[C@H](C)Cc1ccccc1` [Selegiline hydrochloride], the normalised cell viability reads like this: (treatment time: 3 days) 0.993 ± 0.052; (treatment time: 6 days) 1.03 ± 0.12.

As for `C[C@@H]1O[C@@H](O[C@@H]2C=C3CC[C@@H]4[C@H](CC[C@]5(C)[C@@H](c6ccc(=O)oc6)CC[C@]45O)[C@@]3(C)CC2)[C@H](O)[C@H](O)[C@H]1O` [Proscillaridin A], the normalised cell viability (treatment time: 3 days) worked out at 0.945 ± 0.013 and the normalised cell viability (treatment time: 6 days) is 0.908 ± 0.11.

With `C[C@]12CC[C@@H](O)C[C@H]1CC[C@@H]1[C@@H]2CC[C@]2(C)C(=O)CC[C@@H]12` [3-alpha-Hydroxy-5-beta-androstan-17-one], the normalised cell viability was determined as 1.01 ± 0.023 (treatment time: 3 days) and 0.99 ± 0.092 (treatment time: 6 days).

Take `NCCCNCCSP(=O)(O)O` [Amifostine]: the normalised cell viability stood at 1.05 ± 0.037 (treatment time: 3 days) and 1.04 ± 0.036 (treatment time: 6 days).

Take `CC1OC(OC2/C=C/C=C/C=C/C=C/CC/C=C/C=C/[C@H](C)[C@@H](O)[C@@H](C)[C@H](C)OC(=O)CC(O)CC(O)CC(O)CCC(O)C(O)C[C@]3(O)CC(O)C(C(=O)O)C(C2)O3)C(O)C(N)C1O` (some centres not stated) [Nystatine]: the normalised cell viability by setting is: (treatment time: 3 days) 1.06 ± 0.055; (treatment time: 6 days) 0.905 ± 0.084.

On to `NCCC(O)C(=O)NC1CC(N)C(OC2OC(CN)C(O)[C@H](O)[C@@H]2N)[C@H](OC2O[C@H](CO)[C@@H](O)[C@@H]2O)[C@@H]1O` (some centres not stated) [Butirosin disulfate salt], for which the normalised cell viability was 1.04 ± 0.023 (treatment time: 3 days) and 1.08 ± 0.083 (treatment time: 6 days).

Regarding `CCC1=C[C@H]2CN3CCc4c([nH]c5ccccc45)[C@](C(=O)OC)(C2)[C@H]13` [Catharanthine], the normalised cell viability was determined as 1.01 ± 0.051 (treatment time: 3 days) and 0.929 ± 0.1 (treatment time: 6 days).

As to `CC(C)C[C@H]1C(=O)N2CCC[C@H]2[C@]2(O)O[C@](NC(=O)[C@@H]3C=C4c5cccc6[nH]c(Br)c(c56)C[C@H]4N(C)C3)(C(C)C)C(=O)N12` [Bromocryptine mesylate], the normalised cell viability runs as follows: (treatment time: 3 days) 0.833 ± 0.034; (treatment time: 6 days) 0.905 ± 0.037.

The values are drawn from the supplement of paper PMC6609913.
